{
  "source": "PubChem BioAssay AID1671193",
  "about": "(National Center for Advancing Translational Sciences (NCATS), 2021)",
  "note": "Several values for one entry are separate records, joined by “and”; a condition that tells them apart may be missing. Equal values may be shown once. Screen size: about 150,000 compounds; about 180 (0.12%) were called active. Inconclusive results, whose numbers are uncertain, are shown with a selection of clear calls. Calls follow the shape of the dose curve; as a rule, active = well fitted cell-killing curve with a large enough effect; inconclusive = small, poorly fitted or top-dose-only effect, or effect the other way; inactive = flat fitted curve, though single readings scatter. A potency beside an inconclusive call is a rough fit, not a confirmed value. Potency is read from the fitted curve at half-maximal effect; tags tell the direction and shape of the fitted curve.",
  "data": [
    {"assay": "GF-AFC viability counterscreen for inhibitors of alpha-synuclein gene (SNCA) expression; also: nearly all actives have a fitted effect of over 30% in size;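 as to activity change, negative = cytotoxicity: 0% = DMSO-treated cells and -100% = medium-only wells without cells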", "conditions": "HEK-293-SNCA-luc viability, GF-AFC fluorescence, 24 h; activity change, negative = cytotoxicity: at 57.1 µM (top of the series) unless noted", "how_it_was_run": "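Cytotoxicity counterscreen: after 24 h compound treatment of genome-edited SNCA-luciferase HEK-293 cells, live-cell protease substrate GF-AFC read by fluorescence after 30 min; activity scaled between DMSO (0%) and medium-only (-100%), curves Hill-fitted.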", "values": [
      {"smiles": "NCC(CNc1nc(Nc2cccc(NC(=O)N3CCCC3)c2)ncc1I)C(=O)c1cccs1", "note": "(centres undefined)", "Potency": "inconclusive: 1.68 µM [cytotoxic, full curve, poor fit]"},
      {"smiles": "Cc1cc(N2CCN(C(=O)CCCS(N)(=O)=O)CC2)cc(C)n1", "Potency": "inactive"},
      {"smiles": "CCSc1nn(CC(=O)Nc2cccc(Cl)c2)c(N)c1S(=O)(=O)c1ccc(OC)cc1", "Potency": "inconclusive: 22.4 µM [cytotoxic, partial curve]"},
      {"smiles": "Cc1ccccc1NC(=O)Nc1ccc(CC(=O)N(C)[C@@H](CC(C)C)C(=O)NCC[C@H](NC(=O)[C@@H]2CCCN2S(=O)(=O)c2cc(Cl)cc(Cl)c2)C(=O)O)cc1", "Potency": "inconclusive: 8.22 µM [rising, partial curve, poor fit]"},
      {"smiles": "CC1(C(=O)O)CC[C@]2(C(=O)OC3OC(CO)C(O)C(O)C3O)CC[C@]3(C)C(=CCC4[C@@]5(C)CC[C@H](OC6OCC(O)C(O)C6OC6OC(CO)C(O)C(O)C6O)C(C)(C)C5CC[C@]43C)C2C1", "note": "(some centres undefined)", "Potency": "inconclusive: 5.05 µM [rising, partial curve, poor fit]"},
      {"smiles": "CC(C)c1ccc(NC(=O)O[C@@H]2CO[C@H]3[C@@H]2OC[C@@H]3NC(=O)Nc2cccc(C#N)c2)cc1", "Potency": "inconclusive: 25.1 µM [cytotoxic, single point]"},
      {"smiles": "CCN1CC(CN(C)Cc2cn(-c3ccccc3C)nc2-c2ccc(OC)c(F)c2)CC1=O", "note": "(centres undefined)", "Potency": "inconclusive: 15.8 µM [cytotoxic, single point]"},
      {"smiles": "O=C(NCC(F)(F)F)C1CCCCN1Cc1ccc(-c2ccsc2)cc1", "note": "(centres undefined)", "Potency": "inactive"},
      {"smiles": "O=c1c(-c2cc(F)cc(F)c2)nc2cnc(N3CCNCC3)nc2n1CCc1ccccc1", "Potency": "inconclusive: 39.8 µM [rising, single point]"},
      {"smiles": "O=C(NCCCN1CCCC1=O)c1ccc(-c2ccc(N3CCSCC3)nc2)cc1", "Potency": "inconclusive: 39.8 µM [cytotoxic, single point]"},
      {"smiles": "O=C(O)c1cccc(CC2CCN(C(=O)CCCN3CCCCC3=O)C2)c1", "note": "(centres undefined)", "Potency": "inconclusive: 1.78 µM [rising, full curve, poor fit]"},
      {"smiles": "Cc1cc(C)c(S(=O)(=O)NCCc2csc3nc(-c4ccc(Cl)cc4)nn23)c(C)c1", "Potency": "inconclusive: 39.8 µM [cytotoxic, single point]"},
      {"smiles": "CCCC1COCCN1C(=O)c1cccc(CC2CCNCC2)c1", "note": "(centres undefined)", "Potency": "inconclusive: 1.41 µM [cytotoxic, full curve, poor fit]"},
      {"smiles": "Cc1c2oc3c(C)ccc(C(=O)NC4C(=O)NC(C(C)C)C(=O)N5CCCC5C(=O)N(C)CC(=O)N(C)C(C(C)C)C(=O)OC4C)c3nc-2c(C(=O)NC2C(=O)NC(C(C)C)C(=O)N3CCCC3C(=O)N(C)CC(=O)N(C)C(C(C)C)C(=O)OC2C)c(N)c1=O", "note": "(centres undefined)", "Potency": "inconclusive: 0.0086 µM [cytotoxic, full curve, poor fit]"},
      {"smiles": "CCC[C@@H]1O[C@@H]2C[C@H]3[C@@H]4CCC5=CC(=O)C=C[C@]5(C)[C@H]4[C@@H](O)C[C@]3(C)[C@]2(C(=O)CO)O1", "Potency": "inconclusive: 37.7 µM [cytotoxic, single point]"},
      {"smiles": "O=c1cnc2cncnc2n1Cc1ccccc1Cl", "Potency": "inconclusive: 15.8 µM [cytotoxic, partial curve, poor fit]"},
      {"smiles": "CCOc1ccc2c(c1)c(=O)c(S(=O)(=O)c1ccccc1)cn2CC(=O)Nc1ccccc1OC", "Potency": "inconclusive: 8.91 µM [cytotoxic, partial curve, poor fit]"},
      {"smiles": "COc1ccc(-c2nc(C3CC3)nc3c2CCN(Cc2ccc(NC(C)=O)cc2)CC3)cc1", "Potency": "inconclusive: 8.91 µM [cytotoxic, single point]"},
      {"smiles": "CCOc1ccc(CN2CCN(c3ncnc4sc5c(c34)CC(C)CC5)CC2)cc1", "note": "(centres undefined)", "Potency": "inactive"},
      {"smiles": "Cc1ccc(NC(=O)c2c(C)nc3sc(C(=O)Nc4ccc(F)cc4)c(N)c3c2-c2ccccc2Cl)c(C)c1", "Potency": "inconclusive: 22.4 µM [rising, partial curve]"},
      {"smiles": "CCOC(=O)c1c(C)n(-c2ccccc2)c2ccc(OC(=O)c3ccccc3NC(=O)C(C)(C)C)cc12", "Potency": "inconclusive: 28.2 µM [cytotoxic, partial curve, poor fit]"},
      {"smiles": "CCCC(=O)N1Cc2ccccc2CC2(CCCN2Cc2ccc(OC)cc2)C1", "note": "(centres undefined)", "Potency": "inactive"},
      {"smiles": "CCN1CCN(c2cc(C)c3cc(NC(=O)c4cc(Cl)ccc4OC)ccc3n2)CC1", "Potency": "inconclusive: 39.8 µM [cytotoxic, single point]"},
      {"smiles": "Cc1ccc(C2=NC3(CCN(C(=O)c4ccc(F)cc4F)CC3)ON2)cc1", "Potency": "inconclusive: 8.91 µM [cytotoxic, full curve, poor fit]"},
      {"smiles": "NCCC(=O)N1CCCC2(Cc3ccccc3CN2C(=O)c2cccc(Cl)c2)C1", "note": "(centres undefined)", "Potency": "inconclusive: 25.1 µM [cytotoxic, partial curve, poor fit]"},
      {"smiles": "O=C1CN(C(=O)Nc2ccccc2C(F)(F)F)C(c2ccccc2)c2c(sc3c2CCCC3)N1", "note": "(centres undefined)", "Potency": "inconclusive: 35.5 µM [cytotoxic, partial curve, poor fit]"},
      {"smiles": "CCc1cnn2c(NCc3ccc[n+]([O-])c3)cc(N3CCCCC3CCO)nc12", "note": "(centres undefined)", "activity change, negative = cytotoxicity": "inconclusive: -55%"},
      {"smiles": "COc1ccc(-c2c(C(=O)NCc3ccccn3)nc3sccn23)cc1", "Potency": "inactive"},
      {"smiles": "COCC(=O)N1CC2(CCCCC2)CC1COc1ccc(OC)cc1", "note": "(centres undefined)", "Potency": "inconclusive: 3.55 µM [cytotoxic, full curve, poor fit]"},
      {"smiles": "CC(C)(C)Cn1c(N)nc2ccc(-c3[nH]c(C(C)(C)C)nc3-c3ccc(F)cc3)nc21", "Potency": "inconclusive: 30.4 µM [cytotoxic, single point] and inconclusive: 33.6 µM [cytotoxic, partial curve, poor fit]"},
      {"smiles": "C[C@@H]1O[C@@H](O[C@@H]2[C@@H](O)[C@H](O[C@H]3CC[C@@]4(C)C(CC[C@]5(C)C4CC=C4[C@@H]6CC(C)(C)CC[C@]6(C(=O)O[C@@H]6O[C@H](CO)[C@@H](O)[C@H](O)[C@H]6O)CC[C@]45C)C3(C)C)O[C@H](C(=O)O)[C@H]2O)[C@H](O)[C@H](O)[C@H]1O", "note": "(some centres undefined)", "Potency": "inconclusive: 4.5 µM [cytotoxic, single point]"},
      {"smiles": "Cc1cccc(-c2cccc(CN3CCC(NC(=O)Nc4ccc(Cl)cc4)CC3)c2)c1", "Potency": "inconclusive: 25.1 µM [cytotoxic, single point]"},
      {"smiles": "Cc1ccc(-n2nnnc2SCC(=O)NCCc2ccccc2)cc1C", "Potency": "inconclusive: 1 µM [rising, full curve, poor fit]"},
      {"smiles": "CC(C)(C)c1ccc(CN2CC3(COCC2=O)CN(c2ccccc2)C3)cc1", "Potency": "inactive"},
      {"smiles": "O=C(NC1CCN(CCCCC2(C(=O)NCC(F)(F)F)c3ccccc3-c3ccccc32)CC1)c1ccccc1-c1ccc(C(F)(F)F)cc1", "Potency": "inconclusive: 23.8 µM [cytotoxic, single point]"},
      {"smiles": "COc1ccc(C(=O)CC2(O)C(=O)Nc3c(Cl)ccc(Cl)c32)cc1", "note": "(centres undefined)", "Potency": "inconclusive: 17.1 µM [cytotoxic, partial curve, poor fit] and inconclusive: 13.4 µM [cytotoxic, partial curve, poor fit]"},
      {"smiles": "Cc1cccc(CN2CCC3(CC2)CC2C(=O)NCCN2C3)c1", "note": "(centres undefined)", "Potency": "inactive"},
      {"smiles": "COc1ccccc1CN(Cc1ccccc1C)C(=O)[C@H]1CCC[C@H](O)C1", "Potency": "inactive"},
      {"smiles": "Cc1cc(C[C@@H]2COC[C@@H]2NC(=O)c2cnn3ccccc23)on1", "Potency": "inactive"},
      {"smiles": "O=C(CN1C(=O)COc2ccc(S(=O)(=O)N3CCCCCC3)cc21)N1CCN(c2ccc(Cl)cc2)CC1", "Potency": "inconclusive: 7.08 µM [cytotoxic, single point]"},
      {"smiles": "Cn1cc(-c2nc3cncnc3n(-c3ccccc3)c2=O)c2ccccc21", "Potency": "inconclusive: 25.1 µM [rising, single point]"},
      {"smiles": "Clc1cccc(-c2nnnn2Cc2cccnc2)c1Cl", "Potency": "inconclusive: 23.8 µM [rising, single point]"},
      {"smiles": "CCOc1ccc(NC(=O)c2nc(S(=O)(=O)Cc3ccccc3F)ncc2Cl)cc1", "Potency": "inconclusive: 7.94 µM [cytotoxic, full curve, poor fit]"},
      {"smiles": "Cc1cc(C)cc(-c2ccc(CN3CCCC3C(=O)NCC(F)F)cc2)c1", "note": "(centres undefined)", "Potency": "inactive"},
      {"smiles": "Cc1ncoc1C(=O)NCC12CCC=C1N(C)C(=O)CC2", "note": "(centres undefined)", "Potency": "inconclusive: 2.24 µM [rising, full curve, poor fit]"},
      {"smiles": "OCCCNc1cc(-c2ccnc(Nc3cccc(Cl)c3)n2)ccn1", "Potency": "inconclusive: 0.108 µM [cytotoxic, full curve, poor fit]"},
      {"smiles": "COCc1ccc2c(c1)c(OC(C)(C)C(=O)NCCN1CCOCC1)nn2CCC(C)C", "Potency": "inactive"},
      {"smiles": "CN1C[C@@H](NC(=O)Nc2ccccc2)C[C@H]1c1nc(Cc2ccccc2)no1", "Potency": "inactive"},
      {"smiles": "CCc1nc2c(c(-c3ccc(Cl)cc3)n1)CN(Cc1ccc(F)cc1)CC2", "Potency": "inconclusive: 31.6 µM [cytotoxic, partial curve, poor fit]"},
      {"smiles": "COc1ccc(-c2noc(-c3cccn3CC(=O)N3CCN(c4ccccc4OC)CC3)n2)cc1F", "Potency": "inconclusive: 25.1 µM [cytotoxic, partial curve, poor fit]"},
      {"smiles": "Cc1cc(=O)oc2cc(O)ccc12", "Potency": "inconclusive: 17.1 µM [rising, partial curve, poor fit]"},
      {"smiles": "COc1cccc(CC(=O)N2CCOc3ccc(CN4CCc5ccccc5C4)cc3C2)c1", "Potency": "inconclusive: 17.8 µM [cytotoxic, single point]"},
      {"smiles": "Cc1[nH]ncc1CNC(=O)c1ccc(CC2CCN(S(C)(=O)=O)CC2)cc1", "Potency": "inconclusive: 3.16 µM [cytotoxic, single point]"},
      {"smiles": "O=C(Cc1ccc(Cl)cc1)NCCc1csc2nc(-c3ccccc3F)nn12", "Potency": "inconclusive: 25.1 µM [cytotoxic, partial curve, poor fit]"}
    ]}
  ]
}
